From publication PMC4336329 (PLoS ONE, 2015)
Out of some 310,000 compounds screened, about 14,000 (4.5%) showed an effect of 50% or more. The effect is printed as a negative number. This is one part of the list.

The molecules below were run against human ether-à-go-go-related gene (hERG) potassium channel (human, UniProt Q12809) (assay: primary screen, population patch clamp on CHO cells stably expressing hERG).
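Further: peak tail current of the secondary pulse compared with the same well before compound.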

Chain of human ether-à-go-go-related gene (hERG) potassium channel (Q12809 whole entry, looked up): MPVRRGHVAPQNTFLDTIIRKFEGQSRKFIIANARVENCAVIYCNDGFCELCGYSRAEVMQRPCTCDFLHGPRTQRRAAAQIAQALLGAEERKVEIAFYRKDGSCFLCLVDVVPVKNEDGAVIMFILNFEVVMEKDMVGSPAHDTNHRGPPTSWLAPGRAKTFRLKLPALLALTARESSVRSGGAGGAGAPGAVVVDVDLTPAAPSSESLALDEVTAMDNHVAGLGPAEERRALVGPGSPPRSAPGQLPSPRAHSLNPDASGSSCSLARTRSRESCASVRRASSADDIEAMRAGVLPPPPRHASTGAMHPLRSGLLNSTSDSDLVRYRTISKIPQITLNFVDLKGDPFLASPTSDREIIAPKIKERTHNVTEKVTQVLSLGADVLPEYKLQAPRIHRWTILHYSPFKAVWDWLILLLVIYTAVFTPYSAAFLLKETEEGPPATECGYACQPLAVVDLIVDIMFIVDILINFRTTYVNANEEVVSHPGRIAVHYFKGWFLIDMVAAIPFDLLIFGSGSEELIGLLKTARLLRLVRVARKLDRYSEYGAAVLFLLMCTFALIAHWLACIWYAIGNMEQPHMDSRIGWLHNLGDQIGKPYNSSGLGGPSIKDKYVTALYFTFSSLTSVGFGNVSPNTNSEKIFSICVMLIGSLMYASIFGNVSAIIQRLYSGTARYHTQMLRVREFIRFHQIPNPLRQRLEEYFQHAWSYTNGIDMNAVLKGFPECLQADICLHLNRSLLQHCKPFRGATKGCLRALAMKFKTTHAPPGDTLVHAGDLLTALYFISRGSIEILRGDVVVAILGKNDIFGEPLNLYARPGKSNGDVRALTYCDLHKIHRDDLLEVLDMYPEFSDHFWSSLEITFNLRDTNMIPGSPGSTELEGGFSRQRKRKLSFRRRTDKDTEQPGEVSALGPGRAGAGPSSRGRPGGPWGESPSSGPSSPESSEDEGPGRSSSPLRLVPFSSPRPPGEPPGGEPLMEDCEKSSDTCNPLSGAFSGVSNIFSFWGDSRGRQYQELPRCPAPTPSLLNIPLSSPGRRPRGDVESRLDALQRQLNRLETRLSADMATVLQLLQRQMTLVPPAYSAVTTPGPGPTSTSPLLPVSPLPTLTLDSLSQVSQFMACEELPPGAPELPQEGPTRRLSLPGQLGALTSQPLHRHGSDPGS

Compound | hERG current change (%, negative = inhibition) at 10uM
Cc1ccccc1NC(=O)c1cccc2nc3ccccc3nc12 | 13.8%
CCCOC(=O)/C(=C\C=C\c1ccccc1)NC(=O)c1ccccc1 | -7.78%
CCC1c2ccc(C)n2CCN1C(=O)Nc1ccc(F)cc1 (stereo not shown) | -20%
Clc1ccccc1Cn1nnc2c(Nc3ccccc3)ncnc21 | -0.775%
COCCCNC(=O)c1cn(CCOC)c(=O)c2c1c1ccccc1n2C | 12.9%
O=C(NCc1ccc(F)cc1)C1CCCN1S(=O)(=O)c1ccccc1C(F)(F)F (stereo not shown) | -13.4%
NC(=O)C1CCN(C(=O)c2cc3c(s2)CCCCC3)CC1 | -6.51%
Cc1cc(SCC(=O)c2cccs2)nc2ccccc12 | -4.07%
C=CCC(NCc1ccccc1)c1ccc(OC)cc1.O=C(O)C(=O)O (stereo not shown) | 6.43%
CC/C=C\C/C=C\C/C=C\CCCCCCCC(=O)O | 8.25%
C#Cc1ccc([C@H]2C=C(C(=O)N3CCN(Cc4ccccc4)CC3)O[C@@H](OCC)[C@@H]2CCCO)cc1 | -19.6%
C/C(CC(=O)C(F)(F)F)=N\NC(=O)/C(C#N)=C/N(C)C | 9.1%
Cc1ccsc1CNS(=O)(=O)c1ccc(F)cc1 | -13.3%
Cc1[nH]ccc(=O)c1OCc1ccccc1 | 20%
Cc1ccc(C(=O)c2cc3ccccc3o2)cc1C | 9.07%
CCOC(=O)N1CCC(Nc2nc3ccccc3nc2NS(=O)(=O)c2ccc(Cl)cc2)CC1 | -24.4%
CCOc1ccc(NC(=O)CSc2n[nH]c(=O)n2-c2ccccc2)cc1 | -2.15%
Cc1ccc(/C=C/C(=O)Nc2nnc(C)s2)o1 | 8.47%
COc1ccccc1C1C(C(=O)c2cc3ccccc3o2)=C(O)C(=O)N1CCN(C)C (stereo not shown) | 14.5%
O=C(Nc1cc(=O)[nH]c2ncnn12)c1ccccc1 | -4.79%
CC(=O)N1CCN(c2ccc(NC(=O)c3ccc(C(C)(C)C)cc3)cc2)CC1 | 0.16%
COc1ccc(N(CC(=O)NCCSc2ccccn2)S(C)(=O)=O)cc1 | 5.77%
O=C(Cc1ccc(O)cc1)NC1CCCCCC1 | 21.5%

Compound | hERG current change (%, negative = inhibition) at 10uM
NC(=O)C1(N2CCCCC2)CCN(C(=O)CSc2nc3ccccc3o2)CC1 | -4.85%
Cn1c(Cn2c(=O)sc3ccccc32)nnc1SCc1cccnc1 | -23.4%
COc1ccc(N2C(=O)CC(NC34CC5CC(CC(C5)C3)C4)C2=O)c(OC)c1 (stereo not shown) | -3.76%
COc1ccc2c(c1)c1nc(SCC(C)C)n(CCO)c(=O)c1n2C | 5.8%
CS(=O)(=O)N(Cc1ccc(Cl)cc1)c1ccc(C(=O)NCCSCc2ccco2)cc1 | -8.51%
c1ccc2nc(-c3nc4ccccc4o3)ccc2c1 | 7.95%
Cc1sc(NC(=O)/C=C/c2ccco2)c(C(=O)OC(C)C)c1C | -1.79%
NC(N)=N/N=C/c1cccc([N+](=O)[O-])c1O | 25%
Cc1sc2ncnc(N3CCN(S(=O)(=O)c4ccc(F)cc4)CC3)c2c1C | -50.9%
COc1ccccc1CC(=O)NCCc1ccc(S(N)(=O)=O)cc1 | 7.96%
N#CNC(N)=Nc1cccc(Cl)c1 | 12.1%
O=C1c2cccc3cc(Br)cc(c23)C(=O)N1Nc1ccc(Br)cc1 | 9.63%
CSc1ncccc1C(=O)OCC(=O)N(C)c1c(N)n(Cc2ccccc2)c(=O)[nH]c1=O | -29.7%
CCN1CCN(C(=O)CCc2nnc(CCc3c[nH]c4ccccc34)o2)[C@@H](C)C1=O | -0.775%
O=C(c1ccco1)n1nc(-c2ccc(Cl)cc2)nc1NCc1ccco1 | 3.05%
FC(F)(F)c1ccc(N2CCOCC2)c(Nc2nc3ccccc3n3cnnc23)c1 | 7.53%
O=C(Nc1cccc2cccnc12)c1ccc(Br)cc1Br | 21.6%
CC/C(=N\N1CCCCC1)c1c(O)[nH]c(=O)[nH]c1=O | 6.97%
CCc1cccc(CC)c1NC(=O)CCCSc1nc2ccccc2s1 | 2.02%
COc1cccc(NC(=O)CN(C)CC(=O)NC(C)c2ccccc2)c1 (stereo not shown) | -8.48%
Cc1nn(Cc2ccc(F)cc2)c(C)c1NC(=O)c1cc2ncc(Br)cn2n1 | -15.1%
O=C(Nc1c(Cl)cccc1Cl)C1CCN(C(=O)c2cccs2)CC1 | 6.5%
CCOC(=O)C1(Cc2ccc(Cl)cc2)CCN(CCCn2cccn2)CC1 | -74.8%
